The full ranking holds about 33,000 sequences; the median of “E-score (-0.5 to 0.5)” is about -0.04, and the highest 2% start at about 0.36. This is one part of the list.
These sequences were tested against T1, Hmlalpha2 (UniProt P0CY09) (assay: PBM E-score (8-mer binding enrichment) (E-score (-0.5 to 0.5)); higher = stronger / more preferred TF binding; most listed sequences are background and not binding sites). Conditions: protein concentration: 200 nM; construct: GST-full length.
T1 sequence: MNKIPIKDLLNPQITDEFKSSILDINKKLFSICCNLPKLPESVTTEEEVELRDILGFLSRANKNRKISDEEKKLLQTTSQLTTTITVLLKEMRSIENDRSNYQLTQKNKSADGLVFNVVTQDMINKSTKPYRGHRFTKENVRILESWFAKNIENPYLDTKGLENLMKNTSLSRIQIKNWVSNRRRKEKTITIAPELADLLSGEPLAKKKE
How it was run: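 E-scores (a modified Wilcoxon-Mann-Whitney statistic) were assigned by the Universal PBM Analysis Suite to every ungapped eight-base word pooled with its reverse complement. The input came from universal all-10-mer Agilent arrays made double-stranded by primer extension and probed with GST-tagged yeast transcription factors at about 100-200 nM. Fluorescent anti-GST detected bound protein, and masliner normalised the scans.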

Row | Sequence | PBM E-score
1 | TTGGCAAA | 0.104
2 | AAACGTGG | -0.0689
3 | AGAGAAAT | -0.0274
4 | GAGGTGCA | -0.0481
5 | AAAGCGCC | -0.202
6 | CGTTCCTA | -0.0489
7 | AGATAATA | 0.0717
8 | AAATGAAT | 0.0259
9 | ACTGGATC | -0.0567
10 | CAGATCAG | 0.205
11 | CGCCACTC | -0.136
12 | ATACTGCA | -0.0288
13 | CGACTATA | 0.146
14 | CTATCCAC | -0.0992
15 | ACACACGA | 0.322
16 | AGCCCTAA | 0.00565
17 | ATGGCATA | -0.0529
18 | AGTCTCGG | -0.261
19 | AGCCCATG | 0.00706
20 | CCTAATCA | 0.0766
21 | AGATCCCC | -0.109
22 | AGGATAGA | -0.0436
23 | CTTATATC | 0.0225
24 | CTCTTAAA | 0.0249
25 | ATTACTTC | 0.16

Row | Sequence | PBM E-score
26 | CCTTTGGA | -0.243
27 | ATGTCCCC | -0.11
28 | AGAAGAAT | -0.0367
29 | AGTCCCCC | -0.4
30 | AAGGCTCT | -0.237
31 | CACTCACC | -0.256
32 | AGATACAG | -0.0238
33 | GATCTCGA | -0.0622
34 | ACTGGCAG | -0.0934
35 | AGGCCTTC | -0.156
36 | CGACCTTC | -0.315
37 | ACCTGAGT | 0.0645
38 | ATGGGTCG | -0.3
39 | GACATGCA | 0.294
40 | GTCGCATA | 0.146
41 | CGACAGCA | -0.0958
42 | GCATGTGA | 0.263
43 | AATTCCAA | 0.118
44 | CTCATACA | 0.0274
45 | CGGCGTAA | 0.214
46 | CTTCCAGA | -0.18
47 | CCTCACTA | -0.315
48 | AAACAGAA | 0.00626
49 | ATCGGCCC | -0.277
50 | TATTAGGA | 0.196

Row | Sequence | PBM E-score
51 | CCTTTTGC | -0.282
52 | ACTTTAAG | -0.0195
53 | ACGCCTGC | -0.0664
54 | GCATCCGC | -0.114
55 | AGGATCCC | -0.174
56 | GCTCCTAA | -0.0974
57 | GGGATAAA | 0.136
58 | ACACGCAG | 0.313
59 | GCTCAGAA | -0.0102
60 | GTCGGAAC | -0.00797
61 | GCAACTGA | -0.00457
62 | CCCTCGCA | -0.306
63 | GGTCAAAC | 0.00702
64 | ATAGTGCC | -0.103
65 | GGAGATAA | -0.0441
66 | CCCTTGTC | -0.0241
67 | CCGCACGC | -0.18
68 | ACCTTACA | 0.183
69 | TAAGGCTA | -0.106
70 | AAGAGATT | 0.00461
71 | ACGTAAAA | 0.388
72 | GCGACGAA | -0.108
73 | CCTTTAAA | 0.0839
74 | AAGCAATG | 0.16
75 | AACACATC | 0.291

Row | Sequence | PBM E-score
76 | GGTTACTA | 0.00432
77 | ATCCGACG | 0.0174
78 | AGAGCGCT | -0.127
79 | CCGTTCGC | -0.172
80 | AACTGACG | -0.167
81 | CACATAAC | 0.242
82 | CCGCAGCC | -0.332
83 | AGTTGAAG | -0.0465
84 | AAGCAACC | -0.0604
85 | ACACCCTA | 0.097
86 | ATCGGAAT | 0.099
87 | ACATAAGG | 0.331
88 | CCTCTGGA | -0.146
89 | GCCTGTCA | -0.0584
90 | AGGACGAT | 0.0737
91 | GGACGGTA | -0.157
92 | CACGCGAC | 0.128
93 | AGGAACCG | -0.226
94 | CGCGCATA | 0.0684
95 | GTGCGCCA | -0.128
96 | GTAAAAAA | 0.286
97 | TGGCTAAA | 0.0228
98 | CTCTGCAA | -0.0611
99 | ATTCCTAA | 0.0708
100 | GCGACTCC | -0.283

Row | Sequence | PBM E-score
101 | TGTCATAA | 0.268
102 | GATCAAAA | -0.0962
103 | CGACGTTC | -0.115
104 | AAACGAAG | 0.0335
105 | AGACAGAT | 0.00343
106 | AGTCGATA | -0.343
107 | AGATGGGA | -0.23
108 | AGCAATGC | -0.0707
109 | ATAAGGCC | -0.205
110 | AACTCTTG | -0.084
111 | AGTCTGGG | -0.284
112 | AACACGGC | 0.359
113 | ACCGGTTG | -0.0706
114 | CGTCTCTC | -0.145
115 | ACTCTTCA | 0.073
116 | ACCAGTCT | -0.0937
117 | CACTAATG | -0.198
118 | ACGTCTGG | 0.0877
119 | AAGTATAC | 0.262
120 | GTGACGCA | -0.0724
121 | ACTTGAAC | 0.133
122 | ACTCCCCC | -0.367
123 | ATTATGTA | 0.415
124 | ATCTTAGA | -0.0517
125 | CATAATGG | -0.154

Row | Sequence | PBM E-score
126 | GTCGAATA | -0.123
127 | GATATGAA | 0.0756
128 | ATACGCTA | 0.103
129 | AGACGGAG | -0.0994
130 | CCGTTACC | -0.16
131 | CACAGCGA | 0.19
132 | CGCAGATA | -0.0162
133 | ATCTCGAC | -0.0114
134 | CAGGAGGA | -0.136
135 | GAATGGCA | -0.0628
136 | ACGAGCGA | 0.155
137 | GACTACAA | 0.0893
138 | TAACGAAA | 0.224
139 | AGGCAGTA | -0.0689
140 | GGCAACAC | 0.0517
141 | ACAAAAAC | 0.17
142 | GAACATAC | 0.298
143 | TCCGTACA | 0.148
144 | GTATCTAA | 0.171
145 | ATAATCGG | 0.105
146 | ATCTGATG | -0.205
147 | ATACCATC | 0.0769
148 | CCTTGTTA | 0.371
149 | GCGGAAAC | -0.266
150 | AGTCGTTA | -0.0983

Row | Sequence | PBM E-score
151 | ACGGTGTA | 0.205
152 | CGTCCCCC | -0.26
153 | AAGAATAT | -0.124
154 | GCGCACAA | 0.0921
155 | CTAGTTGC | -0.0756
156 | GAGCGATA | -0.144
157 | ACAGTGCG | -0.0486
158 | ACTCCTCG | 0.0131
159 | AGACGTCT | -0.227
160 | AAATGTGT | 0.308
161 | TCAATGCA | 0.115
162 | CTGATGTA | 0.233
163 | AGCGAATA | 0.0664
164 | AACTGTAC | 0.0563
165 | GTGAATCA | 0.0678
166 | GTTATACA | 0.4
167 | CCGGCCCC | -0.383
168 | ACCTTGAG | 0.0654
169 | GAACAGTA | 0.141
170 | GGGTAAAC | 0.0624
171 | CAGAATGG | -0.205
172 | ACCAGGGT | -0.202
